Results as given in publication PMC4336329 (PLoS ONE, 2015).
Screen size: about 310,000 compounds; about 14,000 (4.5%) showed an effect of 50% or more. Effects have a minus sign here. The list shows a part of the results.

The compounds below were run against human ether-à-go-go-related gene (hERG) potassium channel (human, UniProt Q12809) (assay: primary screen, population patch clamp on CHO cells stably expressing hERG).
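Further: peak tail current of the secondary pulse compared with the same well before compound.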

human ether-à-go-go-related gene (hERG) potassium channel, sequence (Q12809 whole entry, looked up): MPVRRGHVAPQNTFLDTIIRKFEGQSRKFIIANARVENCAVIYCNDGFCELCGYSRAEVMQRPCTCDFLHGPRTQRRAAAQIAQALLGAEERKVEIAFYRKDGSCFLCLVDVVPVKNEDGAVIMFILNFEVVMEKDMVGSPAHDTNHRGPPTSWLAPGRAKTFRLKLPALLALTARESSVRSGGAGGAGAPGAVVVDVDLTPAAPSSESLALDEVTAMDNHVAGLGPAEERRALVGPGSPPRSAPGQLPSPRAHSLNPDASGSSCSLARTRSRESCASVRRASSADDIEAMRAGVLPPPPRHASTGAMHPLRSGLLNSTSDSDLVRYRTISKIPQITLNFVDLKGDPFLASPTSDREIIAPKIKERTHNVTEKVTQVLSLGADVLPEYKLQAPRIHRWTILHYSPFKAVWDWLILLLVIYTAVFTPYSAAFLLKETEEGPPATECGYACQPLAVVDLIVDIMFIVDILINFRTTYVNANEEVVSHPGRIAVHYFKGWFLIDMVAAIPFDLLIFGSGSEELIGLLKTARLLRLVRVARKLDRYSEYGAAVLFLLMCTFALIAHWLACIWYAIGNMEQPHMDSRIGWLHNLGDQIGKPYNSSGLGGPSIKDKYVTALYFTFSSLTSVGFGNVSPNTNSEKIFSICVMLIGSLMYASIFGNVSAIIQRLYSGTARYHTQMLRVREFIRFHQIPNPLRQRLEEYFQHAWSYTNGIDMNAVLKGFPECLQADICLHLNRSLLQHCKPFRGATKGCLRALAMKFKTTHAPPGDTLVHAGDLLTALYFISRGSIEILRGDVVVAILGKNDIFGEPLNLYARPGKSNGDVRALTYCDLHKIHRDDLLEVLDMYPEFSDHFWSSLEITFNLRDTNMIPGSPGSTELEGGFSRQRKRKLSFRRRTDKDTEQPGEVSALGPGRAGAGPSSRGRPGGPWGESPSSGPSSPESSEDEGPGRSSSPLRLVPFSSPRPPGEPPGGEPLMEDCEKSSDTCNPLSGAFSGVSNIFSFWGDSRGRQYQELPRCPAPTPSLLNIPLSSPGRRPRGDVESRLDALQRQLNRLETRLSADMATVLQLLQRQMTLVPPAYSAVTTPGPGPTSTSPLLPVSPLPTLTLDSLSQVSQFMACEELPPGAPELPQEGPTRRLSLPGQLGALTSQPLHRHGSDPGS

SMILES | hERG current change (%, negative = inhibition) at 10uM
c1ccc2c(C[C@@H]3CNCCN3CC3CCCCC3)cccc2c1 | 3.16%
COc1cccc(CNC(=O)c2cc3c(C)nc4ccccc4c3o2)c1 | -20.8%
CCN1CCN(Cc2cc(Br)cc(OC)c2O)CC1 | -20.4%
Cc1ccccc1-c1nnnn1C1CCS(=O)(=O)C1 (stereo not shown) | 17.4%
CC1CCCC(NC(=O)CSc2ncccn2)C1C (stereo not shown) | 7.79%
CC1c2cc3c(cc2CCN1C(=O)c1cccc(F)c1)OCCCO3 (stereo not shown) | 5.89%
CCc1c(C)nc(SC/C=C/c2ccccc2)[nH]c1=O | 7.22%
CCCC1C2CN(C(C)C)CC=C2C(C#N)=C(N)C1(C#N)C#N (stereo not shown) | -41%
O=C(Nc1ccc2c(c1)CCC2)C1COc2ccccc2O1 (stereo not shown) | -7.58%
CCCc1c(C(=O)N/N=C/C(C)=C/c2ccccc2)nnn1-c1nonc1N | 8.12%
O=C(CCN1C(=O)/C(=C\c2ccccc2)SC1=S)NNC(=O)c1cccnc1 | 10.8%
CC1CCC2(CC1)NC(=O)N(CC(=O)c1ccc(Cl)s1)C2=O (stereo not shown) | 19.5%
O=C1CN(C(=O)c2ccccc2F)C(c2ccccc2)c2cc(F)ccc2N1 (stereo not shown) | -34.4%
O=C(Nc1ccc(C(F)(F)F)cc1)c1cccn(Cc2ccc3c(c2)OC(F)(F)O3)c1=O | 2.4%
COc1ccc(NC(=S)N2CCC(C(=O)c3ccc(C)cc3)CC2)c(OC)c1 | 24.7%
CC(C)(C)c1ccc(/C=N/OCC(=O)NCc2ccc(F)cc2)cc1 | -2.59%
COc1ccc(CN2CCNC(=O)C2CC(=O)NC2CCCCCC2)c(C)c1C (stereo not shown) | 2.04%
COCCOC(=O)C1=C(C)N(Cc2ccccc2)C(=O)NC1c1ccc(OC)cc1 (stereo not shown) | -17.7%
COc1ccc(Cc2nc3ccc(C(=O)NCC4COCCO4)cc3o2)cc1OC (stereo not shown) | 17.6%
CC(C)=C1C2CCC1C1C(=O)N(c3ccc4c(c3)OCO4)C(=O)C21 (stereo not shown) | 2.92%
Cc1ccc(/C=N/NC(=O)c2nnn(-c3nonc3N)c2CSc2ccccc2)cc1 | 1.53%
CCOC(=O)Cc1cc(=O)c2c(=O)n(-c3ccccc3)[nH]c2[nH]1 | 9.55%

SMILES | hERG current change (%, negative = inhibition) at 10uM
C=CCn1c(N)cc(=O)nc1SCC(=O)N1CCN(c2ccc(F)cc2)CC1 | -4.5%
Cc1ccc(CSc2ncnc3c2cnn3-c2ccccc2)cc1 | 36.9%
CN=C(C)/C(C(=O)OC)=C(/O)c1ccc(Cl)cc1Cl | 13.9%
Cc1ccc(NC(=O)C(C)OC(=O)c2ccc(NC(=O)CC#N)cc2)cc1S(=O)(=O)N1CCOCC1 (stereo not shown) | 5.04%
Cc1cccc(NC(=O)CSc2cc(C)c(C#N)c3nc4ccccc4n23)c1 | -1%
CCOC(=O)C1CCN(S(=O)(=O)c2cccc(-c3cn4cc(C)ccc4n3)c2)CC1 | -3.7%
COC(=O)C1=C(N)Oc2cc(C)n(Cc3cccnc3)c(=O)c2C1c1cccc(OC)c1OC (stereo not shown) | -0.147%
Cc1cc(Nc2cc(F)ccc2C)n2ncnc2n1 | 4.06%
COc1ccccc1NC(=S)N(CCN(C)C)C(C)c1ccncc1 (stereo not shown) | -7.49%
CSCCC(NC(=O)C12CC3CC(CC(C3)C1)C2)C(=O)OCC(=O)c1ccccc1 (stereo not shown) | 12.7%
O=C1N=c2ccc(Br)cc2=C1c1sc(=S)n(NS(=O)(=O)c2ccccc2)c1O | 3.81%
COC(=O)c1ccc(CSc2nnc3c(n2)[nH]c2ccccc23)cc1 | -23.1%
Cc1ccc(OCCC(=O)OCC(=O)Nc2ccc(Cl)cn2)cc1 | -6.26%
O=C(NCCC1=CCCCC1)C1CCC(=O)N(Cc2cccc(C(F)(F)F)c2)C1 (stereo not shown) | -17.2%
COCCCn1c(=O)c2ccccc2n(CC(=O)NCCC2=CCCCC2)c1=O | -16.2%
CC(=O)c1cccc(N(CC(=O)Nc2cccnc2)S(C)(=O)=O)c1 | -6.65%
O=C(NC1CCCC1)C(c1ccccn1)N(C(=O)c1csnn1)c1ccc(F)cc1 (stereo not shown) | 11.4%
CCOc1ccc(NC(=O)CCCOc2cc(=O)n(C)c3ccccc23)cc1 | 4.68%
COCCn1c(SCc2nc3cc(OC)c(OC)cc3c(=O)[nH]2)nnc1-c1ccncc1 | 2.68%
COC(=O)C1=C(c2cccc(OC)c2OC)C[C@@H]2CC[C@H]1N2C(=O)N1CCC(C)CC1 | -4.1%
Cn1nc(C(=O)Nc2ccccc2Cl)cc1C(=O)Nc1ccccc1Cl | 1.65%
CC(C)Oc1ccc2ccccc2c1C=O | -2.75%

SMILES | hERG current change (%, negative = inhibition) at 10uM
O=C(O)C1(c2ccccc2)CCN(S(=O)(=O)c2ccc(Cl)s2)CC1 | 0.758%
CCOc1ccccc1NC(=O)CCC(=O)Nc1ccccc1OCC | 7.25%
CC(C)C[C@H](NC(=O)N1CC(=O)Nc2ccccc21)C(=O)N[C@@H](C(=O)O)c1ccccc1 | -1.09%
COc1ccc(N=Cc2nc(-c3ccccc3)oc2OC(C)=O)cc1 | 10.9%
O=C(O)c1nccnc1C(=O)N1CCN(c2ccccc2)CC1 | 17.5%
O=C(c1ccc(OC2CCN(Cc3ccc(F)cc3)CC2)cc1)N1CCCC1 | -24%
CN1CCN(CC(=O)N2CCn3c4c(c5cc(C6CCCCC6)ccc53)CCCC42)CC1 (stereo not shown) | -17.1%
Cc1ccc(N2CCN(S(=O)(=O)N3CCCCC3)CC2)cc1C | 22.4%
CCN(c1ccccc1)S(=O)(=O)c1ccc(C(=O)Nc2nnc(-c3ccco3)o2)cc1 | 17.7%
CCCCCNCC(=O)Nc1cccc(C(=O)Nc2cccc(C(F)(F)F)c2)c1 | -48.2%
Cc1ccc(/C(=N/Nc2nc3ccccc3s2)C2=C(O)c3ccccc3C2=O)cc1 | 7.33%
COc1ccc(NC(=O)COC(=O)Cc2ccc(-c3ccccc3)cc2)c(OC)c1 | -1.12%
COc1cc(OC)cc(N2CCN(S(=O)(=O)c3ccc(-n4cnnn4)cc3)CC2)c1 | 14.2%
C=CCn1c(SCc2nc3cc(C(F)(F)F)ccc3c(=O)[nH]2)nc2sc(CC)cc2c1=O | 9.42%
COc1ccccc1N/C(=N/S(=O)(=O)c1ccc(Cl)cc1)c1ccccc1 | -35.1%
CC1(C)CN=C(NC2CCCCC2)S1 | 8.62%
COc1ccc(S(=O)(=O)N(C)C2CCS(=O)(=O)C2)cc1OC (stereo not shown) | 13.9%
COc1ccc(CNC(NC(=O)c2ccccc2)(C(F)(F)F)C(F)(F)F)cc1 | 1.38%
O=C(N/N=C/c1cccs1)c1cccc(S(=O)(=O)Nc2ccc(Cl)cc2)c1 | 17.1%
O=C(CCc1c[nH]c2ccccc12)NCC(=O)Nc1ccc(F)c(F)c1F | -10.7%
Cc1c(C)c2ccc(OCC(=O)N3CCN(c4cccc(Cl)c4)CC3)cc2oc1=O | 16.5%
Cc1ccccc1N1CCN(C(=S)c2ccc([N+](=O)[O-])cc2)CC1 | -40%

SMILES | hERG current change (%, negative = inhibition) at 10uM
COc1cccc(N2CC(C(=O)Nc3nnc(SCC(=O)Nc4ccc(NC(C)=O)cc4)s3)CC2=O)c1 (stereo not shown) | 12.8%
C[C@@]12C(=O)Nc3cc(F)ccc3C(=O)N1[C@H]1c3ccccc3OC[C@@H]1[C@@H]2c1ccccc1 | -0.864%
N#Cc1cccc(NC(=O)CN2C(=O)NC(Cc3ccccc3)C2=O)c1 (stereo not shown) | 2.91%
O=C(CSc1cccc2cccnc12)N/N=C/c1ccncc1 | -0.0291%
COc1ccccc1/C=C\C(=O)NCC(=O)N/N=C/c1ccc(O)cc1O | 15%
C[C@H]1CCC[C@]2(O[C@@H](CCO)C[C@@H](O)[C@@H]2O)O1 | -12.8%
O=C(C1CCCN1S(=O)(=O)c1cccc2nsnc12)N1CCCCC1 (stereo not shown) | 11%
O=C(NNC(=O)C1CCCO1)c1ccc([N+](=O)[O-])cc1 (stereo not shown) | 10%
Cc1cc(C)cc(N(C(=O)c2ccc(Br)o2)C2C=CS(=O)(=O)C2)c1 (stereo not shown) | -19.7%
CCN(CC(=O)Nc1c(F)cccc1F)C(=O)C1CC(=O)N(c2ccc3c(c2)OCCO3)C1 (stereo not shown) | 0.703%
Cc1nn(-c2ccccc2)c(N)c1N=Nc1cccc(S(=O)(=O)N2CCOCC2)c1 | 3.19%
COc1ccccc1-n1cnnc1SCC(=O)NC1CCS(=O)(=O)C1 (stereo not shown) | 38.3%
Cc1cc(OCc2nnc(SCC(=O)O)n2-c2ccccc2)ccc1Cl | 7.09%
CCC(=O)N1CCN=C1SCc1ccccc1Cl | 9.36%
Cc1c(CN2CCC(CO)(CCOc3ccccc3)CC2)[nH]c2ccc(Cl)cc12 | -71%
O=C(O)CC1(CC(=O)Nc2ccc(Oc3cccc(C(F)(F)F)c3)nc2)CCCC1 | 13.7%
O=c1[nH]c2ccc(S(=O)(=O)N3CCN(c4ccccc4F)CC3)cc2s1 | -27.1%
O=C(CS(=O)(=O)Cc1ccccc1)NCc1ccc2c(c1)OCO2 | -11.7%
COc1ccc(Cn2c(C)nnc2-c2cnn(C)c2N)cc1 | 14.8%
